Results on 39 sequences are retold here after the supplement of paper PMC10338343.

± gives the standard deviation. The entries are a selection whose mix differs from that of the whole data set. A value given as a limit tells only on which side of the number the result lay.

The subject of the test is MIWI (PIWIL1) piRISC loaded with piRNA #1 (30 nt). The experiment in a line: pre-steady-state target cleavage rate (min^-1); MIWI and MILI are mouse PIWI proteins and EfPiwi is from a freshwater sponge; tags in brackets are library labels; higher = faster piRNA-guided slicing of the target. Conditions: guide: piRNA #1 5'p-UGAGGUAGUAGGUUGUAUAGUAUCCAGAGG; auxiliary factor: 500 nM mouse GTSF1. The essentials: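 Cleave-'n-Seq: a transcribed, DNA-blocked target RNA library (0.1 nM) was mixed with 1 nM active affinity-purified piRISC carrying one synthetic guide, with or without 500 nM GTSF1 partner protein, in HEPES–potassium acetate buffer at 33 °C for 0–8 or 0–960 min. Uncleaved targets were sequenced and normalised to depth and to weakly complementary targets. Three trials were pooled, and k3 was capped at 0.0001 min^-1. The pre-steady-state cleavage rate came from a burst-and-steady-state fit.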
With GGACUGGAUACUAUACAACCUGCUACCUCA, the “pre-steady-state target cleavage rate” value was determined as 0.952 ± 0.063. As to GGUCUGCAUACUAUACAAGCUACUACCUCA, the “pre-steady-state target cleavage rate” value stood at 1.1 ± 0.051. In the case of GGAGACCAUACUAUUCAACCUACUAGCUCA it was 0.479 ± 0.046; in that of GGAGACGAUACUAUACUACCUACUACCACA, 1.22 ± 0.079. To “GGAGUGGAUACUAUACAACCUACUACCUCA [g2:g26:cont:t1A]” belongs 1.71 ± 0.088; to GGAGUGGAUACUAAUGAACCUACUACCUCA, 0.257 ± 0.044. For GGAGAGGAAACUAUACAACCUACUACCUCA, the “pre-steady-state target cleavage rate” value amounted to 1.36 ± 0.08. To GGACUGGAUUGUAUACAACCUACUACCUCA belongs 1.17 ± 0.13. For the sequence GGAGUGGAUACUAUACAAGCUACUUCCUCA, the “pre-steady-state target cleavage rate” value came out at 0.374 ± 0.031. Consider GGAGAGGAUAGUAUACAACCUACUACCUCA, for which the “pre-steady-state target cleavage rate” value was 0.145 ± 0.031. As to GGACUGGAUUCUAUACAACCUUCUACCUCA, the “pre-steady-state target cleavage rate” value is 0.697 ± 0.044. As to GGUCUGGAUUCUAUAGAACCUACUACCUCA, the “pre-steady-state target cleavage rate” value is 0.979 ± 0.064.

With GGAGAGGAUUCUAUAGAACCUACUACCUCA, the “pre-steady-state target cleavage rate” value was 1.19 ± 0.056. Turning to GGAGUGGAUACUAUAGAACCUACUACCUGA, the “pre-steady-state target cleavage rate” value worked out at 0.104 ± 0.022. To GGACUGGAUAUAUACAACCUACUACCUCA belongs 1.43 ± 0.12; to GGAGAGGAUACUAAACAACCUACUACCACA, 0.78 ± 0.04. Turning to GCUCUCCUUACUAUACAACCUACUACCUCA, the “pre-steady-state target cleavage rate” value is 1.85 ± 0.12.

Take CCUCAGCAUACUAUACAACCUACUACCUCA: the “pre-steady-state target cleavage rate” value was found to be 2.12 ± 0.13. In the case of “GGACUGGAUACUAUACAACCUACAUGGAGA [g8:g27:cont:t1A]”, the “pre-steady-state target cleavage rate” value was below 0.0001. Take GGACUGGAUACUAUACAACAUACUACCUCA: the “pre-steady-state target cleavage rate” value amounted to 1.19 ± 0.077. For GGAGACCAUACUACACAACCUACUACCUCA, the “pre-steady-state target cleavage rate” value is 1.73 ± 0.11. For the sequence GGAGACGAUAGUAUACAACCUUCUACCUCA, the “pre-steady-state target cleavage rate” value came out at 0.51 ± 0.031. In the case of GCUCUGGAUACUAUACAAGGAACUACCUCA it was 0.00393 ± 0.0032; in that of GGAGAGGAUACUAUACAUCCUACUACCUCA, 1.15 ± 0.058; in that of CCUCUGGUUACUAUACAACCUACUACCUGA, 0.689 ± 0.051. To “GGAGACCUUACUAUACAACCUACAUGGAGA [g8:g22:cont:t1A]” belongs 0.015 ± 0.0043. Turning to GGAGACCAUACUAUUCAACCAACUACCUCA, the “pre-steady-state target cleavage rate” value worked out at 0.0721 ± 0.0085. In the case of GGAGUGGAUACUAUACAACCUACUUGCUCA, the “pre-steady-state target cleavage rate” value came to 0.00341 ± 0.0031.

In the case of GGUCUGGAGACUAUACAACCUACUACCUCA, the “pre-steady-state target cleavage rate” value is 1.9 ± 0.14.

For the sequence CCUCUGGAUAGUAUACAACCUACUACCUCA, the “pre-steady-state target cleavage rate” value stood at 0.2 ± 0.039. In the case of GGUCUGGAUACUAUACAACGUACUUCCUCA it was 0.317 ± 0.048; in that of CCUCUGGAUACUAUACAACCUACUUCCUGA, 0.259 ± 0.04; in that of GGUCUGGAUACUAUACAACCAACUACCUCA, 0.149 ± 0.015. In the case of GCUCUGGAUACUAUACAACCUGCUACCUCA it was 0.571 ± 0.033. To CCUCUGGAUACUAUACAACCUUCUACCACA belongs 0.763 ± 0.05; to GGAGACCUAACAUAUACAACCUACUACCUCA, 0.188 ± 0.047; to GGACUGGAACUAUACAACCUACUACCUCA, 1.49 ± 0.12.

Take GGAGACGAUACUAUAGAUCCUACUACCUCA: the “pre-steady-state target cleavage rate” value turned out to be 0.901 ± 0.049. As to GGAGACGAUACGAUACAACCUACUACCUCA, the “pre-steady-state target cleavage rate” value was 1.44 ± 0.084.
